From paper PMC6984821
These are yes or no findings as the source states them, for the method shown. Binding seen in cells or lysates may run through a third protein. Some entries that bind do so weakly or less than the wild type.

Protein sequences, listed by entry. Tags and fused reporters are not part of them.
UniProt P03081: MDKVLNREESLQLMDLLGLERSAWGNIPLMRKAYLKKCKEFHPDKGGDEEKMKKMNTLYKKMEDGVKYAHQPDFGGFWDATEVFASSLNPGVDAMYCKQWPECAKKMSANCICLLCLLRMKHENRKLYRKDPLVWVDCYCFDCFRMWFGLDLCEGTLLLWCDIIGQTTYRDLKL
UniProt P03082: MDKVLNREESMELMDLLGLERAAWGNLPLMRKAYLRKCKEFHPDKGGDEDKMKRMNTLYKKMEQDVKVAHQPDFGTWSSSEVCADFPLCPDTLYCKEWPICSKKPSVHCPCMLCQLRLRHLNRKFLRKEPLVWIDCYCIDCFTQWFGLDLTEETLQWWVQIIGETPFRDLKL
UniProt P03083: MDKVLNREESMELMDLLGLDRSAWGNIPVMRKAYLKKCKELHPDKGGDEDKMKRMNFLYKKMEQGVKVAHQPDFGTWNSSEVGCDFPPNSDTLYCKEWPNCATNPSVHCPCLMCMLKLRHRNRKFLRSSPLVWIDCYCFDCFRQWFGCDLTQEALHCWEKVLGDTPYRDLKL
UniProt P30153: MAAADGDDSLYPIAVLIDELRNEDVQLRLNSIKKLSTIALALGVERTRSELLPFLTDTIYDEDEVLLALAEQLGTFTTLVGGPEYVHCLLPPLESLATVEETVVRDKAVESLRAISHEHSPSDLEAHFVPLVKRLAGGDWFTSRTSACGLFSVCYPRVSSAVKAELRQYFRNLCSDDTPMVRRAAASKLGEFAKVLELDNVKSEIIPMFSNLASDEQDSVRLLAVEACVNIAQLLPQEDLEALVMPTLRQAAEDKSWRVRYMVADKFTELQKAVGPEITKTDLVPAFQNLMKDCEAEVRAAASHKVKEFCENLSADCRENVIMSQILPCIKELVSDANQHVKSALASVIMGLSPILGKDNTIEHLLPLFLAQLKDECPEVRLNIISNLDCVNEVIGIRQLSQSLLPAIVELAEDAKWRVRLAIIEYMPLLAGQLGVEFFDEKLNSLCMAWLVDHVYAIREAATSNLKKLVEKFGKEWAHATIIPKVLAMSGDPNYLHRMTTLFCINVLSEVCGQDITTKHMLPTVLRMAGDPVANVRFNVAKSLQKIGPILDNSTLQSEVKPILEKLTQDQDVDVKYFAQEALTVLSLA
UniProt P67775: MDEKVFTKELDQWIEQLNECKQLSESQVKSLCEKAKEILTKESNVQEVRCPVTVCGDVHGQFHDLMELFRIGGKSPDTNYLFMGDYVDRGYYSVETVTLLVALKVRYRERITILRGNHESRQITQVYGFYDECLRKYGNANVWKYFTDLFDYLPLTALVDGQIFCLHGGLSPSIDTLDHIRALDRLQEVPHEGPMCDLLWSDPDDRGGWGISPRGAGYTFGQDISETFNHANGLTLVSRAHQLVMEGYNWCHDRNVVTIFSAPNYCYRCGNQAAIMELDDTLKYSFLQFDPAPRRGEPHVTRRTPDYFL
UniProt Q5VSL9: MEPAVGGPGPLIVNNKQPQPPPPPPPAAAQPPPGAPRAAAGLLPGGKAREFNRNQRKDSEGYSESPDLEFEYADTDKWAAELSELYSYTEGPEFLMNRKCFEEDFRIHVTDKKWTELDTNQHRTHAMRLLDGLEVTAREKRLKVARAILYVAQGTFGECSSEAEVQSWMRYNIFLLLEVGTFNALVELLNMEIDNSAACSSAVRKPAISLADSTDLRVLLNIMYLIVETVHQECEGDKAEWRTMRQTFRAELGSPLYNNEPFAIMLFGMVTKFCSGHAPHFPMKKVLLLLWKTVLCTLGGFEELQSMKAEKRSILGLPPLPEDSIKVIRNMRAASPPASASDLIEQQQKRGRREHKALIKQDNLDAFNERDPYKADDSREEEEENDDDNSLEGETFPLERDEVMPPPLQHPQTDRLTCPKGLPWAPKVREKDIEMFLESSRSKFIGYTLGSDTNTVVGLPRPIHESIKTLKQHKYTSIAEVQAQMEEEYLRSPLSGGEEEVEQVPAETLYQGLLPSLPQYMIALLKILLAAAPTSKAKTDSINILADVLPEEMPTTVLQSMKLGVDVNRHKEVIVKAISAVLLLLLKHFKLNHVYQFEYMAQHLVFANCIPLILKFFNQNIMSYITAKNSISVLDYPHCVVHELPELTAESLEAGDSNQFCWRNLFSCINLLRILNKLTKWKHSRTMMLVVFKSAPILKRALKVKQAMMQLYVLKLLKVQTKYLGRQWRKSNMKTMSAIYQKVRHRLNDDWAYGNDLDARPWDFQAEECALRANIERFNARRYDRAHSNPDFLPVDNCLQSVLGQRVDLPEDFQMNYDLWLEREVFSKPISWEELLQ
UniProt O95819: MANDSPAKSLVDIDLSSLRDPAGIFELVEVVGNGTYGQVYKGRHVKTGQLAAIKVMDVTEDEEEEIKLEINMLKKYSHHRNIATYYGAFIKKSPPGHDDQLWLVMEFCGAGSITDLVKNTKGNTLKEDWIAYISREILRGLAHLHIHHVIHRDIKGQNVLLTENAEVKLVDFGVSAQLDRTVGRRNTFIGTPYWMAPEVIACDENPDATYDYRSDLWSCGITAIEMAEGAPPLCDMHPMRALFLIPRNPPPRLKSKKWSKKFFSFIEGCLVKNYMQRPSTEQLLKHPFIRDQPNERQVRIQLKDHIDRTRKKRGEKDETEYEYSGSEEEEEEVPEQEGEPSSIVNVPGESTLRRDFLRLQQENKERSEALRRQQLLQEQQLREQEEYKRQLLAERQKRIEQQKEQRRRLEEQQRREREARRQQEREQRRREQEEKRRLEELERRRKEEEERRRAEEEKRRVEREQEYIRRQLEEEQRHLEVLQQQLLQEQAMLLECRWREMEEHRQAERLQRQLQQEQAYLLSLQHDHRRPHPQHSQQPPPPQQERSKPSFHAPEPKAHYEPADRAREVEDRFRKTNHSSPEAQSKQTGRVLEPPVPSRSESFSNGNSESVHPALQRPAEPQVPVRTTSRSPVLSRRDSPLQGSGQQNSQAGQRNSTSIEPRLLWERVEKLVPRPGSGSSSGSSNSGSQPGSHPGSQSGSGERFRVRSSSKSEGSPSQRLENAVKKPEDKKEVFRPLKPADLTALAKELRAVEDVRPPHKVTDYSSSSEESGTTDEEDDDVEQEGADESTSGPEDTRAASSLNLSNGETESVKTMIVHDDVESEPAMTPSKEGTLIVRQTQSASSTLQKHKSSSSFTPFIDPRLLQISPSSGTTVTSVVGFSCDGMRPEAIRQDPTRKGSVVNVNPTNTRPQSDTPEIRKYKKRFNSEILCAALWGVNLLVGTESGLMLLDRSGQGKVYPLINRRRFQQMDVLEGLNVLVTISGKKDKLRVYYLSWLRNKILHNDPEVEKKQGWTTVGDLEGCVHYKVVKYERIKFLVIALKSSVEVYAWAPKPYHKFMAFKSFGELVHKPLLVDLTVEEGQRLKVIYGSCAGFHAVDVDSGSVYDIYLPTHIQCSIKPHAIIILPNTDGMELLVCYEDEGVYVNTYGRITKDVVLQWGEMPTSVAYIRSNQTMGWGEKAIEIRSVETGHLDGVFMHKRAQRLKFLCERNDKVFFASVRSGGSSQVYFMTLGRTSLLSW

T1: STRN4, endogenous (human (endogenous in HEK TER, IMR90)) (UniProt Q9NRL3)
T1 sequence: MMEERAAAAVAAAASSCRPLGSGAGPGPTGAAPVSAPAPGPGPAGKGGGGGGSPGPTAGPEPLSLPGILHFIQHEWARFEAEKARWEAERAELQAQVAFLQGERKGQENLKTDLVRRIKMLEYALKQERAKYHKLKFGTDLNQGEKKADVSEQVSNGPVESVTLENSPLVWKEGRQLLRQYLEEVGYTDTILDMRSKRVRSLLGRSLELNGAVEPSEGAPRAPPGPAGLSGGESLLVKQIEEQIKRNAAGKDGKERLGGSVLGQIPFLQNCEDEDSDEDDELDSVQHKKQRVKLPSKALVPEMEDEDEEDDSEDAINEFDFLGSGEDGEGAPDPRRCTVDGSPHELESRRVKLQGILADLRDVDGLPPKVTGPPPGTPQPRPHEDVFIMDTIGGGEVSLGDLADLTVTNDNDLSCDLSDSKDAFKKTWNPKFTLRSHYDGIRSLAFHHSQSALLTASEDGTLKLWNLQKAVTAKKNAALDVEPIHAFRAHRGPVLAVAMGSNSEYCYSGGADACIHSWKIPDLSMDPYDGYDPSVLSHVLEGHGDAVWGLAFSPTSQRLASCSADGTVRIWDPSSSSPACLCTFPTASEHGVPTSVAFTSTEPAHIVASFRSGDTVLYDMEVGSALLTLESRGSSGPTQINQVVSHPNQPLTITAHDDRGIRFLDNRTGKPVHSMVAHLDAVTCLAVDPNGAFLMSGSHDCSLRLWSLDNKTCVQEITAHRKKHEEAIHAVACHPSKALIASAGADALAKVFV

T2: STRN3, endogenous (human (endogenous in HCT116, 293T, HEK TER)) (UniProt Q13033)
T2 sequence: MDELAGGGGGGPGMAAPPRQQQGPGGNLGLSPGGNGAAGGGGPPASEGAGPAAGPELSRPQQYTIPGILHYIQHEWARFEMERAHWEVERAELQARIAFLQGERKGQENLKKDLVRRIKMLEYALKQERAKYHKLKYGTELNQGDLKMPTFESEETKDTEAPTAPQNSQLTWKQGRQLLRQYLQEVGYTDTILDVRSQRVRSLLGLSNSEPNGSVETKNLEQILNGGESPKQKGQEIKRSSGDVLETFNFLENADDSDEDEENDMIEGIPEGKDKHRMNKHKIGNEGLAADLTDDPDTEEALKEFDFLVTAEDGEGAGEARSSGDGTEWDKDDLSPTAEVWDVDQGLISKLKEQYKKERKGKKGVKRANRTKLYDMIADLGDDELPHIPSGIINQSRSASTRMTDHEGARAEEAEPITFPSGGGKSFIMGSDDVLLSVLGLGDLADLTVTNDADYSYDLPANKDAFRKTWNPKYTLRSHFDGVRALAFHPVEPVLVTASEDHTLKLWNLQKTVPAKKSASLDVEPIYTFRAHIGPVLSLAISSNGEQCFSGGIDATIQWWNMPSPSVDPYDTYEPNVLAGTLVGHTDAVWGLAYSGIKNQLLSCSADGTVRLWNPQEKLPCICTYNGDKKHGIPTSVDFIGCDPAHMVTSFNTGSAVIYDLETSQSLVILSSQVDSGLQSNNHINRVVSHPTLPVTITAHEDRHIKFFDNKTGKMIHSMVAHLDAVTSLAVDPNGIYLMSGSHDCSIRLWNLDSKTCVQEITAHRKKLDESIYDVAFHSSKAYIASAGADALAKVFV

B1: STRN3, endogenous (protein, UniProt Q13033 1-797)
chain: T2 sequence

Legend:
[1] = molecular target: SV40 Small T antigen, C-terminal Flag-HA (CTAP) tagged (SV40 (Macaca mulatta polyomavirus 1)) (UniProt P03081); test: co-IP; co-immunoprecipitation of CTAP-tagged SV40 ST wild-type and PP2A binding mutants in 293T cells; immunoblot for STRN3 and Aα
[2] = molecular target: T1, STRN4, endogenous (human (endogenous in HEK TER, IMR90)); test: co-IP; co-immunoprecipitation of endogenous STRN4, STRIP1, PP2A Cα and MAP4K4 in IMR90 cells expressing SV40 ST or GFP; immunoblot
[3] = molecular target: BKPyV Small T antigen, C-terminal Flag-HA (CTAP) tagged (BK polyomavirus (BKPyV)) (UniProt P03082); test: co-IP; HA-tag immunoprecipitation from lysates of HCT116 cells expressing CTAP (C-terminal Flag-HA) tagged STs; endogenous partners detected by immunoblot
[4] = molecular target: JCPyV-Mad1 Small T antigen, C-terminal Flag-HA (CTAP) tagged (JC polyomavirus (JCPyV-Mad1)) (UniProt P03083); test: as above
[5] = molecular target: SV40 Small T antigen, C-terminal Flag-HA (CTAP) tagged (SV40 (Macaca mulatta polyomavirus 1)) (UniProt P03081); test: as above
[6] = molecular target: T1, STRN4, endogenous (human (endogenous in HEK TER, IMR90)); test: co-IP; IP of endogenous STRN3, STRN4, STRIP1 and MAP4K4 from HEK TER cells expressing ST or GFP, and from HEK TER ST cells with shSTRN4 or shLuc; beads washed with 300 mM NaCl lysis buffer; immunoblot
[7] = molecular target: T2, STRN3, endogenous (human (endogenous in HCT116, 293T, HEK TER)); test: as above

Molecule	binding [1]	binding [2]	binding [3]	binding [4]	binding [5]	binding [6]	binding [7]
PP2A Aα subunit, endogenous (from UniProt P30153 1-589)	binds						
PP2A C (catalytic) subunit, endogenous (from UniProt P67775 1-309)		binds	binds	binds	binds	binds	
STRIP1, endogenous (from UniProt Q5VSL9 1-837)			binds	binds	binds		
mitogen-activated protein kinase kinase kinase kinase 4 (MAP4K4), endogenous (from UniProt O95819 1-1239)		binds	no binding	no binding	binds	binds	binds
B1			binds	binds			
